In the test the target is T1, EGFR (from SK-OV-3 derived cell lysates) (UniProt P00533).
T1 construct: whole, on cells; Tested from detergent cell lysates (co-IP, GST pull-down); also called EGF receptor
Briefly: GST-OPCML 1-3 pull-down, SKOV-3 lysate.

B1: GST-OPCML D1+2+3 (GST fusion of all three Ig domains of OPCML) (other)
chain: [about 200 residues skipped]PKAMDNVTVRQGESATLRCTIDDRVTRVAWLNRSTILYAGNDKWSIDPRVIILVNTPTQYSIMIQNVDVYDEGPYTCSVQTDNHPKTSRVHLIVQVPPQIMNISSDITVNEGSSVTLLCLAIGRPEPTVTWRHLSVKEGQGFVSEDEYLEISDIKRDQSGEYECSALNDVAAPDVRKVKITVNYPPYISKAKNTGVSVGQKGILSCEASAVPMAEFQWFKEETRLATGLDGMRIENKGRMSTLTFFNVSEKDYGNYTCVATNKLGNTNASIT
notes: also called GST-OPCML 1+2+3; GST-OPCML 1-3
Regarding B1, the binding result was “no binding”.

The values above are taken from patent US20130171133A1 (IMPERIAL INNOVATIONS, published 2013).
